From the BET-seq Pho4 binding data (Le et al. 2018) come the findings set out here.

The other results are listed elsewhere or left out. These are noisy estimates, calculated here from bound and input reads.

The target in this assay is T1, Pho4 (S. cerevisiae) (UniProt P07270).
T1 sequence: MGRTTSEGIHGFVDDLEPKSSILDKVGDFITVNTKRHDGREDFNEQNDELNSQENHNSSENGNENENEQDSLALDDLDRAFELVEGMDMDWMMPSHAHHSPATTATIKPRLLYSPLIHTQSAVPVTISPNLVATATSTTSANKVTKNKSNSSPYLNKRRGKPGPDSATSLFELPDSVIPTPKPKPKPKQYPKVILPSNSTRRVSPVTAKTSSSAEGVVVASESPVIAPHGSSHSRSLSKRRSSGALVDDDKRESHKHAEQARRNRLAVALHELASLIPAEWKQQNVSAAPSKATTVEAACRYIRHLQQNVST
The assay is described as follows: relative binding free energy (BET-seq); higher = weaker binding. The following applies: reference: library average.
TATGGCACGTGGCTAT: the “relative binding free energy” value is -0.2 kcal/mol.

As for TGTAGCACGTGAGGTG, the “relative binding free energy” value worked out at 0.11 kcal/mol.

For GTTAGCACGTGGAATT, the “relative binding free energy” value worked out at 0.17 kcal/mol.

For GGTTACACGTGTCTGT, the “relative binding free energy” value was 0.13 kcal/mol.

For the sequence CGCGGCACGTGAAGTG, the “relative binding free energy” value was determined as 0.26 kcal/mol.

Consider TGGGTCACGTGTGGCC, for which the “relative binding free energy” value was 0.09 kcal/mol.

As to GAGGGCACGTGGTGAT, the “relative binding free energy” value was -0.03 kcal/mol.

Regarding TTTATCACGTGAGAAG, the “relative binding free energy” value was 0.39 kcal/mol.

On to TGGGACACGTGTGAGC, for which the “relative binding free energy” value worked out at 0.14 kcal/mol.

As to GAAGGCACGTGTGGAT, the “relative binding free energy” value was determined as 0.13 kcal/mol.

On to CGCGTCACGTGGATGG, for which the “relative binding free energy” value is 0.06 kcal/mol.

With GGGGTCACGTGGTGTG, the “relative binding free energy” value was 0.07 kcal/mol.

For the sequence CGGGACACGTGGAGTT, the “relative binding free energy” value was 0.11 kcal/mol.

With TGGGGCACGTGTTCGG, the “relative binding free energy” value is -0.12 kcal/mol.

Consider GTAGGCACGTGGCGAT, for which the “relative binding free energy” value is -0.09 kcal/mol.

For GTTTGCACGTGTAGAC, the “relative binding free energy” value is 0.1 kcal/mol.

In the case of TTATCCACGTGTGGAG, the “relative binding free energy” value stood at 0.15 kcal/mol.

TTTCGCACGTGATTGC: the “relative binding free energy” value amounted to 0.06 kcal/mol.

As for ATGTGCACGTGCAGGG, the “relative binding free energy” value was -0.14 kcal/mol.

Consider ATAGGCACGTGAGAAT, for which the “relative binding free energy” value is 0.12 kcal/mol.

With GTTAGCACGTGGCCGT, the “relative binding free energy” value is -0.06 kcal/mol.

As for TGGGACACGTGTTATA, the “relative binding free energy” value is -0.02 kcal/mol.

Consider CCGTTCACGTGGTGGA, for which the “relative binding free energy” value was 0.16 kcal/mol.

For the sequence TGTGACACGTGTAAGT, the “relative binding free energy” value amounted to 0.11 kcal/mol.

As for AGTTTCACGTGTAAAT, the “relative binding free energy” value came out at 0.31 kcal/mol.

For AGTAGCACGTGGCAAG, the “relative binding free energy” value was -0.14 kcal/mol.

Turning to CAGATCACGTGAGGGG, the “relative binding free energy” value amounted to 0.32 kcal/mol.

As for TCATGCACGTGTGGAA, the “relative binding free energy” value came to 0.01 kcal/mol.

With CAGTGCACGTGAGGCG, the “relative binding free energy” value is 0.11 kcal/mol.

In the case of GGTGTCACGTGCGCGG, the “relative binding free energy” value was -0.03 kcal/mol.

With TAGTACACGTGGGGTT, the “relative binding free energy” value was -0.11 kcal/mol.

Consider TGGACCACGTGGGGGT, for which the “relative binding free energy” value is -0.2 kcal/mol.

Consider GGAGGCACGTGTTTTA, for which the “relative binding free energy” value was -0.1 kcal/mol.

Turning to TTGTGCACGTGTCACT, the “relative binding free energy” value was -0.05 kcal/mol.

Regarding CGTGGCACGTGGAATG, the “relative binding free energy” value was -0.08 kcal/mol.

As to GTGAGCACGTGAGCGG, the “relative binding free energy” value was -0.01 kcal/mol.

In the case of TATGCCACGTGAAGTT, the “relative binding free energy” value was 0.22 kcal/mol.

TTGGTCACGTGGAAAA: the “relative binding free energy” value turned out to be 0.21 kcal/mol.

For ATTTTCACGTGCGAAT, the “relative binding free energy” value is 0.29 kcal/mol.

Regarding TTCGGCACGTGGGTAC, the “relative binding free energy” value was -0.04 kcal/mol.

As for ACGGGCACGTGTGGGA, the “relative binding free energy” value was -0.12 kcal/mol.

For the sequence TTGTTCACGTGAATGA, the “relative binding free energy” value came to 0.45 kcal/mol.

For the sequence AGGGGCACGTGGACTG, the “relative binding free energy” value is -0.09 kcal/mol.

TGAGGCACGTGTGAAA: the “relative binding free energy” value turned out to be 0.18 kcal/mol.

Take TGGGGCACGTGAGACT: the “relative binding free energy” value worked out at 0.09 kcal/mol.

With GATTGCACGTGTTGGA, the “relative binding free energy” value came to 0.06 kcal/mol.

For the sequence TAAATCACGTGGGTGT, the “relative binding free energy” value was -0.07 kcal/mol.

For the sequence CGCTTCACGTGGATGG, the “relative binding free energy” value was 0.26 kcal/mol.

For TGATGCACGTGTAGTG, the “relative binding free energy” value turned out to be 0.01 kcal/mol.

Consider CAGAGCACGTGGGATG, for which the “relative binding free energy” value is -0.2 kcal/mol.

On to ATGAGCACGTGCGGAT, for which the “relative binding free energy” value was -0.03 kcal/mol.

As to TTTTTCACGTGTAGAC, the “relative binding free energy” value is 0.28 kcal/mol.

Consider GGTTACACGTGCCGTT, for which the “relative binding free energy” value amounted to 0.14 kcal/mol.

Take TAAGGCACGTGGCTAT: the “relative binding free energy” value is -0.13 kcal/mol.

Take ATCCGCACGTGATGGT: the “relative binding free energy” value came to 0.19 kcal/mol.

For the sequence AGCGACACGTGGGGGA, the “relative binding free energy” value is -0.22 kcal/mol.

As for TAATGCACGTGGGGCA, the “relative binding free energy” value is -0.18 kcal/mol.

In the case of GTGGGCACGTGCTTTT, the “relative binding free energy” value is -0.03 kcal/mol.

Consider TGTGACACGTGTGGCT, for which the “relative binding free energy” value is -0.05 kcal/mol.

For the sequence GGCTACACGTGTTTAG, the “relative binding free energy” value is 0.19 kcal/mol.

With GTGTACACGTGCAGGT, the “relative binding free energy” value came out at 0.14 kcal/mol.

With AGATTCACGTGAGAGG, the “relative binding free energy” value worked out at 0.46 kcal/mol.

For TGGATCACGTGGGCTT, the “relative binding free energy” value came to 0.04 kcal/mol.

Regarding GTTGGCACGTGGGTGC, the “relative binding free energy” value was -0.1 kcal/mol.

Take ATTGCCACGTGGGATG: the “relative binding free energy” value was -0.21 kcal/mol.

As to GGTGACACGTGAAGAT, the “relative binding free energy” value was found to be 0.3 kcal/mol.

Take TGATGCACGTGTTCTG: the “relative binding free energy” value is -0.05 kcal/mol.

For the sequence CATGGCACGTGAAGGT, the “relative binding free energy” value is 0.07 kcal/mol.

For the sequence GCGAACACGTGGGTTT, the “relative binding free energy” value amounted to 0.07 kcal/mol.

AACTTCACGTGGTAGG: the “relative binding free energy” value came to 0.29 kcal/mol.

As to TTTTTCACGTGGAATC, the “relative binding free energy” value worked out at 0.35 kcal/mol.

As for GCTGTCACGTGCAGGT, the “relative binding free energy” value came out at 0.05 kcal/mol.

As for GTGGGCACGTGTTCGC, the “relative binding free energy” value was -0.05 kcal/mol.

Consider GGGTACACGTGCGGCA, for which the “relative binding free energy” value was 0.12 kcal/mol.

Consider CGGATCACGTGTGGGT, for which the “relative binding free energy” value was 0.15 kcal/mol.

For ATTGCCACGTGTAGTA, the “relative binding free energy” value stood at 0 kcal/mol.

Consider TATGTCACGTGAAGGT, for which the “relative binding free energy” value came out at 0.2 kcal/mol.

As to TCTGTCACGTGGGTTG, the “relative binding free energy” value is -0.09 kcal/mol.

Regarding GCGTGCACGTGGTATG, the “relative binding free energy” value is -0.05 kcal/mol.

As for TAAATCACGTGAGTTG, the “relative binding free energy” value was 0.42 kcal/mol.

For the sequence AATTCCACGTGGGGAG, the “relative binding free energy” value turned out to be 0.01 kcal/mol.

Consider TTTGTCACGTGACGCT, for which the “relative binding free energy” value stood at 0.22 kcal/mol.

On to GTCGTCACGTGGATAA, for which the “relative binding free energy” value is 0.4 kcal/mol.

Consider GGCGGCACGTGTTTGG, for which the “relative binding free energy” value is -0.04 kcal/mol.

AGGTACACGTGTTCTT: the “relative binding free energy” value was 0.02 kcal/mol.

As for ATTGACACGTGAGATG, the “relative binding free energy” value was determined as 0.01 kcal/mol.

AGTCGCACGTGTTGAT: the “relative binding free energy” value came to 0.03 kcal/mol.

TATGGCACGTGGTCCT: the “relative binding free energy” value was -0.09 kcal/mol.

On to GCGGTCACGTGGTTGA, for which the “relative binding free energy” value came to 0.07 kcal/mol.

For TGCGACACGTGGTGGT, the “relative binding free energy” value was -0.1 kcal/mol.

In the case of GGAGTCACGTGGTGCT, the “relative binding free energy” value is 0.11 kcal/mol.

Turning to ATGATCACGTGTTGAA, the “relative binding free energy” value is 0.32 kcal/mol.

As to TATTACACGTGTGTAT, the “relative binding free energy” value was 0.09 kcal/mol.

ATGTGCACGTGTATAG: the “relative binding free energy” value was -0.04 kcal/mol.

In the case of TGTCGCACGTGAGCGG, the “relative binding free energy” value was 0.21 kcal/mol.

For GTATGCACGTGGTGGG, the “relative binding free energy” value is -0.02 kcal/mol.

Consider GTGAACACGTGAAATG, for which the “relative binding free energy” value was found to be 0.32 kcal/mol.

As to GGAGTCACGTGGGCGC, the “relative binding free energy” value turned out to be 0.1 kcal/mol.

Take ATTGGCACGTGAAGGG: the “relative binding free energy” value turned out to be 0 kcal/mol.

As for GTGTCCACGTGCGTGG, the “relative binding free energy” value was -0.03 kcal/mol.

With CTAAGCACGTGGGGAG, the “relative binding free energy” value was -0.12 kcal/mol.

In the case of ATCAGCACGTGTGTGT, the “relative binding free energy” value was -0.19 kcal/mol.

In the case of CTATACACGTGGTTGA, the “relative binding free energy” value was -0.04 kcal/mol.

For TGTTGCACGTGAACGG, the “relative binding free energy” value is 0.21 kcal/mol.

As for TAATGCACGTGTTGTT, the “relative binding free energy” value was -0.08 kcal/mol.

Regarding AGAGTCACGTGTTGAT, the “relative binding free energy” value stood at 0.14 kcal/mol.

Regarding TGTTTCACGTGAGGAT, the “relative binding free energy” value is 0.46 kcal/mol.

As to TATTCCACGTGGGTGA, the “relative binding free energy” value was -0.14 kcal/mol.

As to GGTTGCACGTGCTGTA, the “relative binding free energy” value is -0.09 kcal/mol.

For GTCGTCACGTGGAGGC, the “relative binding free energy” value was found to be 0.1 kcal/mol.

Take TAGCGCACGTGGTCGT: the “relative binding free energy” value is -0.22 kcal/mol.

For the sequence GGACGCACGTGTGGTC, the “relative binding free energy” value was determined as 0.06 kcal/mol.

Turning to TTGTGCACGTGCAAGT, the “relative binding free energy” value was -0.12 kcal/mol.

Take GTGGTCACGTGTACGA: the “relative binding free energy” value was determined as 0.22 kcal/mol.

With CGTTACACGTGCGGTG, the “relative binding free energy” value is -0.06 kcal/mol.
